Measured values: the supplement of paper PMC11417369
The list shows a part of the results.

What follows are sequences tested on PfAP2-HC AP2 domain (GST-tagged) (assay: gcPBM binding intensity (ln(normalized median fluorescence intensity)); higher = stronger DNA binding).
Procedure, shortened: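 An Agilent 4 × 180k array carrying primer-extended double-stranded 36-bp intergenic genomic probes and negative controls received GST-tagged P. falciparum DNA-binding domains expressed in E. coli, about 25 μg on average, for 1 h. The binding buffer contained 1× PBS, 1% milk, 0.2 mg/ml BSA, 0.5% salmon testes DNA and 0.03% Triton X-100. Binding intensity is the top Masliner-normalised natural-log median intensity across replicate spots of either probe orientation, read after Alexa488 anti-GST antibody staining and a 488 nm scan.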
With “TATTAACTCAATAGCGCACACTTTTAATATTTTATA [CACACA_site4973]” the “gcPBM binding intensity (ln)” value was 9.89. With “TATATAACTACAAGAACACACATATAAATATAAATA [CACACA_site7210]” the “gcPBM binding intensity (ln)” value was 9.96. In the case of “GTAATTAAGATATATACACACAAAGGCTATTAAATA [CACACA_site6604]”, the “gcPBM binding intensity (ln)” value is reported as 9.9. For “ATATATATATATATATGTACGTAAACAAAAATTTAT [XGTACX_site6780]”, the “gcPBM binding intensity (ln)” value was 9.98. For “TATTGATAAAAAATATGTACATATATACATATATAT [XGTACX_site3821]”, the “gcPBM binding intensity (ln)” value was 9.73. “ATGTATCGTAACAAATGTACAAGAGGATGTTTAGAC [XGTACX_site3355]” was tested, and the “gcPBM binding intensity (ln)” value was 10.3. In the case of “GTATTTATATGATTAACACACATATGTGGATTAATA [CACACA_site1315]”, the “gcPBM binding intensity (ln)” value is reported as 9.68. For “GATATATTTTGTTATGTAGATGTTGGTAGGAATTTT [GTGCAC_negctrl_site485]”, the “gcPBM binding intensity (ln)” value was 9.72. With “TATTATTTATATGATACACACGTACATATACACATA [CACACA_site9275]” the “gcPBM binding intensity (ln)” value was 9.86. With “CAACAAAAGAAACACACACACACAAACACAAAAAAA [CACACA_site3389]” the “gcPBM binding intensity (ln)” value was 10.7. With “TGTATACCTTAATATACACACATACATATATATATA [CACACA_site8370]” the “gcPBM binding intensity (ln)” value was 9.73. With “GGATATATTATATGTACACACATATATAACGGATAT [CACACA_site1309]” the “gcPBM binding intensity (ln)” value was 9.87. With “ATGTAATAAATACTACGTACATATATATGTGTTAAT [XGTACX_site3265]” the “gcPBM binding intensity (ln)” value was 9.87. “ATATACATATTTTTGACACACATTAGGAAAATATAT [CACACA_site4123]” was tested, and the “gcPBM binding intensity (ln)” value was 9.71. In the case of “ATATATAAATATAGCATACACACAAAAAAATAAAAT [CACACA_site2332]”, the “gcPBM binding intensity (ln)” value is reported as 10.3. With “AAATATATATATATTACACACTATATATTTATTTAT [CACACA_site681]” the “gcPBM binding intensity (ln)” value was 9.84. In the case of “TTCATTAAAACGAATACACACATAAATATATAAAAG [CACACA_site4824]”, the “gcPBM binding intensity (ln)” value is reported as 9.82. “ATATACTTATATATTGCACACATCTAATATTTTGAA [CACACA_site3165]” was tested, and the “gcPBM binding intensity (ln)” value was 9.86. For “TATAATATGTTTGATGGTACACGTAAACACCTTGCA [XGTACX_site1643]”, the “gcPBM binding intensity (ln)” value was 9.61. With “ATAACTAAATTATATTGTACAAAATAATTATATATT [XGTACX_site1188]” the “gcPBM binding intensity (ln)” value was 9.6. “CATATCAAAAAAAAATGTACACGTATATACAATACA [XGTACX_site2660]” was tested, and the “gcPBM binding intensity (ln)” value was 9.66. “TTTTAAAATAAAAAAATAAAAAAAGGGGAAAAAAAA [CACACA_negctrl_site847]” was tested, and the “gcPBM binding intensity (ln)” value was 9.55. In the case of “GTATTTTTTTTCTTTTGTACATATATATAAAGAATA [XGTACX_site4569]”, the “gcPBM binding intensity (ln)” value is reported as 9.35. “TATTATATATATAAATGTACATATTATTTTTCTTTT [XGTACX_site8670]” was tested, and the “gcPBM binding intensity (ln)” value was 9.67. “AAGAATTTTCGATTTGCACACATTTGTAAAATAAAA [CACACA_site2354]” was tested, and the “gcPBM binding intensity (ln)” value was 9.58. With “TTTAATCAACAAAATCTACACACTAATATGAAATAT [CACACA_site9250]” the “gcPBM binding intensity (ln)” value was 9.65. For “ATACACGTTTTACAATGTACAGAAAGTATACATAAT [XGTACX_site4585]”, the “gcPBM binding intensity (ln)” value was 9.74. For “TGTTTCTAAGAATTTACACACAAAATATTTCTACAT [CACACA_site7846]”, the “gcPBM binding intensity (ln)” value was 9.9. “TAATACTTAATGAACACATGCACATATACATAGTAT [TGCATGCA_site496]” was tested, and the “gcPBM binding intensity (ln)” value was 9.74. For “TTAAAAATTAAAAGTAGTACATATAATATAAACATT [XGTACX_site424]”, the “gcPBM binding intensity (ln)” value was 9.68. With “AAAAAAAAAAATTGCACACAAAAAAAAAAAAAAAAA [CACACA_site2073]” the “gcPBM binding intensity (ln)” value was 9.32. With “AATTATACTCACGTTACACACACACTAGATATATAT [CACACA_site6133]” the “gcPBM binding intensity (ln)” value was 10.7. In the case of “TTTTTTTTTTTTTTTTGTACATATATATAAAAAATA [XGTACX_site2772]”, the “gcPBM binding intensity (ln)” value is reported as 8.95. With “TAATATTACATTTATTGTACTTTGTTTTTATTTTAT [XGTACX_site1605]” the “gcPBM binding intensity (ln)” value was 10.1. For “CCCACAATGGTTTATATACACACTGTTGCAAATTCT [CACACA_site3066]”, the “gcPBM binding intensity (ln)” value was 9.79. “ATTGAAAAAATACAATGTACATAGTAATACAAAGAA [XGTACX_site4142]” was tested, and the “gcPBM binding intensity (ln)” value was 10. “TTATAAAAAAAAAAAAAAAAAAAAACCAATATAATA [CACACA_negctrl_site968]” was tested, and the “gcPBM binding intensity (ln)” value was 9.43. For “TTTATTCTAAAATATTAAAAATGATTTGTTTTTTCA [CACACA_negctrl_site1751]”, the “gcPBM binding intensity (ln)” value was 9.25. In the case of “GTATTATAAAAAGGAAGTACATATATACATATTATA [XGTACX_site1271]”, the “gcPBM binding intensity (ln)” value is reported as 9.69. “ATATGAACATTAAAAAAGTAAGGTATTCTCCCCTCT [CACACA_negctrl_site1299]” was tested, and the “gcPBM binding intensity (ln)” value was 9.71. In the case of “ATAATTATACAAAAGCGTACACGATATAAATCTACG [XGTACX_site8115]”, the “gcPBM binding intensity (ln)” value is reported as 9.76. In the case of “CTTAAATCCATAATATGTACTTAAAAAGAAAAAATA [XGTACX_site4765]”, the “gcPBM binding intensity (ln)” value is reported as 9.16. With “AGACAATTTTTTAGTACACACATATAGATATATAAA [CACACA_site6832]” the “gcPBM binding intensity (ln)” value was 9.69. With “ATATATGTGTATGTATGTACTCATTTTTGTATATAT [XGTACX_site490]” the “gcPBM binding intensity (ln)” value was 9.72. For “AAACAAAGAAAGAACACACATACACAATATACCTAC [CACACA_site2835]”, the “gcPBM binding intensity (ln)” value was 10.5. With “TTATATATTTATATTTGTACGTATAAATTTTTTTTT [XGTACX_site2833]” the “gcPBM binding intensity (ln)” value was 9.7. For “TATTTTGAAAAAGTTGCACACAAAATTTAAAAAAAA [CACACA_site8470]”, the “gcPBM binding intensity (ln)” value was 9.69. With “CATTTAAATTATAAGTGTACACGATCATATTTCATC [XGTACX_site349]” the “gcPBM binding intensity (ln)” value was 9.61. In the case of “ATAATGATATATTATAAACACACAAAGATGAATATA [CACACA_site8914]”, the “gcPBM binding intensity (ln)” value is reported as 9.9. For “TACATTCATGTGTATTGTACAAACTATTTTATAATA [XGTACX_site7744]”, the “gcPBM binding intensity (ln)” value was 9.56. “TATATAATATATATAGTGCATAAGTTCAAAAGAATA [GTGCAC_site9805]” was tested, and the “gcPBM binding intensity (ln)” value was 9.82. For “GCATATTTTATAATTTTACACACCATATAAAATAAT [CACACA_site8904]”, the “gcPBM binding intensity (ln)” value was 9.67. With “TACATATTTTTTATGTGTACATATTTTTTATGTGTA [XGTACX_site443]” the “gcPBM binding intensity (ln)” value was 9.65. In the case of “ACAATCCTAACGACATGTACAAATATATATATTTTT [XGTACX_site7335]”, the “gcPBM binding intensity (ln)” value is reported as 9.74. For “CCAACATTTTTTAGAAGTACATTTTTATATTTATTA [XGTACX_site5179]”, the “gcPBM binding intensity (ln)” value was 9.51. “TATATATATATATATGTACACACATATATACCTTTC [CACACA_site8854]” was tested, and the “gcPBM binding intensity (ln)” value was 10.4.
